Measured values from the supplement of paper PMC8728848.
The other results are listed elsewhere or left out.

Tests used:
Assay in all cases: glycan array binding signal (z-score within array); higher = stronger binding
Conditions in all cases: glycan notation: IUPAC condensed, linker removed
Gal(a1-4)Gal(b1-4)Glc = target: Gal(a1-4)Gal(b1-4)Glc
Method in brief: (§1)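 Glycan array data were curated from 3228 arrays in the Consortium for Functional Glycomics database and kept only where the protein sequence was available. Glycan names were converted to IUPAC-condensed notation, and columns mapping to the same glycan were averaged. The binding signal is a within-array Z-score, averaged across arrays of the same protein sequence at different concentrations or buffers and across linkers. Negative Z-scores can be read as non-binding.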

Gal(a1-4)Gal(b1-4)GlcNAc = target: Gal(a1-4)Gal(b1-4)GlcNAc
Method in brief: as §1

Gal(a1-4)GlcNAc = target: Gal(a1-4)GlcNAc
Method in brief: as §1

Gal(a1-6)Glc = target: Gal(a1-6)Glc
Method in brief: as §1

Gal(b1-2)Gal = target: Gal(b1-2)Gal
Method in brief: as §1

Gal(b1-3)Gal = target: Gal(b1-3)Gal
Method in brief: as §1

Gal(b1-3)GalNAc = target: Gal(b1-3)GalNAc
Method in brief: as §1

[1] = target: Gal(b1-3)GalNAc(b1-3)Gal(a1-4)Gal(b1-4)Glc
Method in brief: as §1

[2] = target: Gal(b1-3)GalNAc(b1-4)Gal(b1-4)Glc
Method in brief: as §1

[3] = target: Gal(b1-3)GalNAc(b1-4)[Neu5Ac(a2-3)]Gal(b1-4)Glc
Method in brief: as §1

Gal(b1-3)GlcNAc = target: Gal(b1-3)GlcNAc
Method in brief: as §1

[4] = target: Gal(b1-3)GlcNAc(b1-3)Gal(b1-4)Glc
Method in brief: as §1

[5] = target: Gal(b1-3)GlcNAc(b1-3)Gal(b1-4)GlcNAc
Method in brief: as §1

[6] = target: Gal(b1-3)[Fuc(a1-4)]GlcNAc
Method in brief: as §1

[7] = target: Gal(b1-3)[Fuc(a1-4)]GlcNAc(b1-3)Gal(b1-4)GlcNAc
Method in brief: as §1

[8] = target: Gal(b1-3)[Fuc(a1-4)]GlcNAc(b1-3)Gal(b1-4)[Fuc(a1-3)]GlcNAc
Method in brief: as §1

[9] = target: Gal(b1-3)[GlcNAc(b1-6)]GalNAc
Method in brief: as §1

[10] = target: Gal(b1-3)[Neu5Ac(a2-6)]GalNAc
Method in brief: as §1

[11] = target: Gal(b1-3)[Neu5Ac(a2-6)]GlcNAc(b1-6)Gal(b1-4)Glc
Method in brief: as §1

[12] = target: Gal(b1-3)[Neu5Ac(b2-6)]GalNAc
Method in brief: as §1

[13] = target: Gal(b1-4)GalNAc(a1-3)[Fuc(a1-2)]Gal(b1-4)GlcNAc
Method in brief: as §1

[14] = target: Gal(b1-4)GalNAc(b1-3)[Fuc(a1-2)]Gal(b1-4)GlcNAc
Method in brief: as §1

Gal(b1-4)Glc = target: Gal(b1-4)Glc
Method in brief: as §1

Gal(b1-4)Glc6S = target: Gal(b1-4)Glc6S
Method in brief: as §1

Gal(b1-4)GlcNAc = target: Gal(b1-4)GlcNAc
Method in brief: as §1

[15] = target: Gal(b1-4)GlcNAc(b1-2)Man(a1-3)[Gal(b1-4)GlcNAc(b1-2)Man(a1-6)]Man(b1-4)GlcNAc(b1-4)GlcNAc
Method in brief: as §1

[16] = target: Gal(b1-4)GlcNAc(b1-3)Gal(b1-4)Glc
Method in brief: as §1

[17] = target: Gal(b1-4)GlcNAc(b1-3)Gal(b1-4)GlcNAc
Method in brief: as §1

[18] = target: Gal(b1-4)GlcNAc(b1-3)Gal(b1-4)GlcNAc(b1-3)Gal(b1-4)GlcNAc
Method in brief: as §1

[19] = target: Gal(b1-4)GlcNAc(b1-3)Gal(b1-4)[Fuc(a1-3)]GlcNAc(b1-3)Gal(b1-4)[Fuc(a1-3)]GlcNAc
Method in brief: as §1

[20] = target: Gal(b1-4)GlcNAc(b1-3)GalNAc
Method in brief: as §1

[21] = target: Gal(b1-4)GlcNAc(b1-3)[Gal(b1-4)GlcNAc(b1-6)]GalNAc
Method in brief: as §1

[22] = target: Gal(b1-4)GlcNAc(b1-6)Gal(b1-4)GlcNAc(b1-6)GalNAc
Method in brief: as §1

[23] = target: Gal(b1-4)GlcNAc(b1-6)GalNAc
Method in brief: as §1

[24] = target: Gal(b1-4)GlcNAc(b1-6)[Gal(b1-3)]GalNAc
Method in brief: as §1

Gal3S(b1-3)GalNAc = target: Gal3S(b1-3)GalNAc
Method in brief: as §1

Gal3S(b1-3)GlcNAc = target: Gal3S(b1-3)GlcNAc
Method in brief: as §1

[25] = target: Gal3S(b1-3)[Fuc(a1-4)]GlcNAc
Method in brief: as §1

Gal3S(b1-4)Glc = target: Gal3S(b1-4)Glc
Method in brief: as §1

Gal3S(b1-4)Glc6S = target: Gal3S(b1-4)Glc6S
Method in brief: as §1

Gal3S(b1-4)GlcNAc = target: Gal3S(b1-4)GlcNAc
Method in brief: as §1

Gal3S(b1-4)GlcNAc6S = target: Gal3S(b1-4)GlcNAc6S
Method in brief: as §1

Gal3S6S(b1-4)GlcNAc = target: Gal3S6S(b1-4)GlcNAc
Method in brief: as §1

Gal3S6S(b1-4)GlcNAc6S = target: Gal3S6S(b1-4)GlcNAc6S
Method in brief: as §1

Gal4S(b1-4)GlcNAc = target: Gal4S(b1-4)GlcNAc
Method in brief: as §1

B1: CLL-1 (Homo sapiens) (protein)
chain: MWIDFFTYSSMSEEVTYADLQFQNSSEMEKIPEIGKFGEKAPPAPSHVWRPAALFLTLLCLLLLIGLGVLASMFHVTLKIEMKKMNKLQNISEELQRNISLQLMSNMNISNKIRNLSTTLQTIATKLCRELYSKEQEHKCKPCPRRWIWHKDSCYFLSDDVQTWQESKMACAAQNASLLKINNKNALEFIKSQSRSYDYWLGLSPEEDSTRGMRVDNIINSSAWVIRNAPDLNNMYCGYINRLYVQYYHCTYKKRMICEKMANPVQLGSTYFREA
**Q.** How did the “glycan array binding signal (z-score)” value (Gal(a1-4)Gal(b1-4)Glc) turn out when B1 was run?
**A.** -0.184

**Q.** What about the “glycan array binding signal (z-score)” value (Gal(a1-4)Gal(b1-4)GlcNAc) of the same binder?
**A.** -0.072

**Q.** What about the “glycan array binding signal (z-score)” value (Gal(a1-4)GlcNAc) of the same binder?
**A.** -0.166

**Q.** What about the “glycan array binding signal (z-score)” value (Gal(a1-6)Glc) of the same binder?
**A.** -0.163

**Q.** What about the “glycan array binding signal (z-score)” value (Gal(b1-2)Gal) of the same binder?
**A.** -0.198

**Q.** And the “glycan array binding signal (z-score)” value (Gal(b1-3)Gal)?
**A.** -0.198

**Q.** What about the “glycan array binding signal (z-score)” value (Gal(b1-3)GalNAc) of the same binder?
**A.** -0.159

**Q.** What about the “glycan array binding signal (z-score)” value [1] of the same binder?
**A.** -0.212

**Q.** And the “glycan array binding signal (z-score)” value [2]?
**A.** -0.279

**Q.** And the “glycan array binding signal (z-score)” value [3]?
**A.** -0.157

**Q.** What about the “glycan array binding signal (z-score)” value (Gal(b1-3)GlcNAc) of the same binder?
**A.** -0.175

**Q.** What about the “glycan array binding signal (z-score)” value [4] of the same binder?
**A.** -0.048

**Q.** What about the “glycan array binding signal (z-score)” value [5] of the same binder?
**A.** -0.141

**Q.** What about the “glycan array binding signal (z-score)” value [6] of the same binder?
**A.** -0.168

**Q.** And the “glycan array binding signal (z-score)” value [7]?
**A.** -0.114

**Q.** And the “glycan array binding signal (z-score)” value [8]?
**A.** -0.122

**Q.** What about the “glycan array binding signal (z-score)” value [9] of the same binder?
**A.** -0.17

**Q.** What about the “glycan array binding signal (z-score)” value [10] of the same binder?
**A.** -0.197

**Q.** What about the “glycan array binding signal (z-score)” value [11] of the same binder?
**A.** -0.261

**Q.** What about the “glycan array binding signal (z-score)” value [12] of the same binder?
**A.** -0.117

**Q.** And the “glycan array binding signal (z-score)” value [13]?
**A.** -0.189

**Q.** And the “glycan array binding signal (z-score)” value [14]?
**A.** -0.259

**Q.** What about the “glycan array binding signal (z-score)” value (Gal(b1-4)Glc) of the same binder?
**A.** -0.186

**Q.** And the “glycan array binding signal (z-score)” value (Gal(b1-4)Glc6S)?
**A.** -0.187

**Q.** What about the “glycan array binding signal (z-score)” value (Gal(b1-4)GlcNAc) of the same binder?
**A.** -0.173

**Q.** And the “glycan array binding signal (z-score)” value [15]?
**A.** -0.216

**Q.** And the “glycan array binding signal (z-score)” value [16]?
**A.** -0.267

**Q.** What about the “glycan array binding signal (z-score)” value [17] of the same binder?
**A.** -0.256

**Q.** And the “glycan array binding signal (z-score)” value [18]?
**A.** -0.169

**Q.** What about the “glycan array binding signal (z-score)” value [19] of the same binder?
**A.** -0.107

**Q.** And the “glycan array binding signal (z-score)” value [20]?
**A.** -0.238

**Q.** What about the “glycan array binding signal (z-score)” value [21] of the same binder?
**A.** -0.154

**Q.** And the “glycan array binding signal (z-score)” value [22]?
**A.** -0.227

**Q.** What about the “glycan array binding signal (z-score)” value [23] of the same binder?
**A.** -0.234

**Q.** And the “glycan array binding signal (z-score)” value [24]?
**A.** -0.188

**Q.** What about the “glycan array binding signal (z-score)” value (Gal3S(b1-3)GalNAc) of the same binder?
**A.** -0.125

**Q.** And the “glycan array binding signal (z-score)” value (Gal3S(b1-3)GlcNAc)?
**A.** -0.256

**Q.** And the “glycan array binding signal (z-score)” value [25]?
**A.** -0.158

**Q.** And the “glycan array binding signal (z-score)” value (Gal3S(b1-4)Glc)?
**A.** 0.106

**Q.** And the “glycan array binding signal (z-score)” value (Gal3S(b1-4)Glc6S)?
**A.** 1

**Q.** What about the “glycan array binding signal (z-score)” value (Gal3S(b1-4)GlcNAc) of the same binder?
**A.** -0.158

**Q.** What about the “glycan array binding signal (z-score)” value (Gal3S(b1-4)GlcNAc6S) of the same binder?
**A.** 0.454

**Q.** What about the “glycan array binding signal (z-score)” value (Gal3S6S(b1-4)GlcNAc) of the same binder?
**A.** 0.063

**Q.** What about the “glycan array binding signal (z-score)” value (Gal3S6S(b1-4)GlcNAc6S) of the same binder?
**A.** 3.91

**Q.** And the “glycan array binding signal (z-score)” value (Gal4S(b1-4)GlcNAc)?
**A.** -0.123
